Common to all, as to test: glycan array binding signal (z-score within array); higher = stronger binding
What all share (conditions): glycan notation: IUPAC condensed, linker removed

For experiment [1], the target named is Fuc(a1-2)Gal(b1-4)[Fuc(a1-3)]GlcNAc. Summed up:
(§1)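 From the Consortium for Functional Glycomics database, 3228 arrays were curated, keeping only those whose protein sequence was available. Binding is given as a within-array Z-score averaged across arrays sharing a protein sequence and across linkers. Negative Z-scores can be read as non-binding.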

In experiment [2] the target is Fuc(a1-2)[GalNAc(a1-3)]Gal(b1-4)GlcNAc. Summed up: as §1
Experiment [3] has as its target Fuc(a1-2)[GalNAc(a1-3)]Gal(b1-4)[Fuc(a1-3)]GlcNAc. Summed up: as §1
Experiment [4] has as its target Fuc(a1-3)[Gal3S(b1-4)]Glc6S. Summed up:
as §1

The target of the next experiment is Fuc(b1-3)GlcNAc. Summed up:
as §1

Experiment [5] concerns the target Gal(b1-3)GlcNAc(b1-3)Gal(b1-4)GlcNAc. An outline of the steps:
as §1

Experiment [6] addresses Gal(b1-3)[Fuc(a1-4)]GlcNAc(b1-3)Gal(b1-4)GlcNAc. An outline of the steps:
as §1

Experiment [7] concerns the target Gal(b1-3)[Neu5Ac(a2-6)]GlcNAc(b1-6)Gal(b1-4)Glc. Summed up: as §1
A further experiment concerns the target Gal3S(b1-4)Glc. An outline of the steps:
as §1

The target in the next experiment is Glc(b1-4)Glc. An outline of the steps: as §1
The next experiment has as its target GlcA(b1-3)Gal. An outline of the steps:
as §1

Experiment [8] concerns the target GlcNAc(b1-3)Gal(b1-4)GlcNAc(b1-3)Gal(b1-4)GlcNAc. An outline of the steps: as §1
Experiment [9] addresses GlcNAc(b1-3)[GlcNAc(b1-4)][GlcNAc(b1-6)]GlcNAc. An outline of the steps:
as §1

Experiment [10] has as its target GlcNAc(b1-4)GlcNAc(b1-4)GlcNAc(b1-4)GlcNAc(b1-4)GlcNAc. Summed up:
as §1

Experiment [11] deals with Neu5Ac(a2-3)Gal(b1-3)GalNAc(b1-3)Gal(b1-4)GlcNAc. An outline of the steps:
as §1

Experiment [12] addresses Neu5Ac(a2-3)Gal(b1-3)GalNAc(b1-4)[Neu5Ac(a2-3)]Gal(b1-4)Glc. An outline of the steps:
as §1

For experiment [13], the target named is Neu5Ac(a2-3)Gal(b1-3)GlcNAc. Summed up: as §1
Experiment [14] deals with Neu5Ac(a2-3)Gal(b1-4)GlcNAc(b1-3)Gal(b1-4)GlcNAc(b1-3)Gal(b1-4)GlcNAc. An outline of the steps: as §1
Experiment [15] concerns the target Neu5Ac(a2-3)Gal(b1-4)GlcNAc(b1-6)[Neu5Ac(a2-3)Gal(b1-3)]GalNAc. Summed up:
as §1

The target in experiment [16] is Neu5Ac(a2-3)Gal(b1-4)[Fuc(a1-3)]GlcNAc(b1-3)Gal(b1-4)[Fuc(a1-3)]GlcNAc(b1-3)Gal(b1-4)[Fuc(a1-3)]GlcNAc. An outline of the steps: as §1
For a further experiment, the target named is Neu5Ac(a2-3)GalNAc. An outline of the steps:
as §1

For experiment [17], the target named is Neu5Ac(a2-3)GalNAc(b1-4)GlcNAc. Summed up:
as §1

A further experiment deals with Neu5Ac(a2-6)Gal. Summed up: as §1

Many of the other results were omitted from the sample, so the strongest signals are more common in it than they were.

B1: CD44 (Homo sapiens) (protein)
chain: [in this place about 200 residues]ATRDQDTFHPSGGSHTTHGSESDGHSGSQEGGANTTSGPIRTPQIPACEEPKSCDKTHTCPPCPAPEFEGAPSVFLFPPKPKDTLMISRTPEVTCVVVDVSHEDPEVKFNWYVDGVEVHNAKPREEQYNSTYRVVSLVTVLHQDWLNGKEYKCKVSNKALPAPIEKTISKAKGQPREPQVYTLPPSRDELTKNQVSLTCLVKGFYPSDIAVEWESNGQPENNYKTTPPVLDSDGSFFLYSKLTVDKSRWQQGNVFSCSVMHEALHNHYTQRSLSLSPGK
On to B1, for which the “glycan array binding signal (z-score)” value in [1] was -0.524; in experiment [2], -0.298; in experiment [3], -0.28; in [4] it was -0.366; in the experiment with Fuc(b1-3)GlcNAc it was 0.007; in experiment [5], 0.918. The “glycan array binding signal (z-score)” value in experiment [6] is -0.281; in experiment [7] it was 0.129; with Gal3S(b1-4)Glc it was 0.127; in the experiment with Glc(b1-4)Glc, 3.9; with GlcA(b1-3)Gal, 0.452; in [8], -0.604. Moreover, the “glycan array binding signal (z-score)” value in experiment [9] is -0.896; in experiment [10], -0.306; in [11] it was 0.707; in [12], 3.9; in experiment [13] it was -0.344; in experiment [14] it was -0.108. Moreover, the “glycan array binding signal (z-score)” value is 5.39 in [15]; 5.12 in experiment [16]; -0.5 in the experiment with Neu5Ac(a2-3)GalNAc; 3.63 in experiment [17]; -0.611 in the experiment with Neu5Ac(a2-6)Gal.

The values are drawn from the supplement of paper PMC8728848.
